Results published in the supplement of paper PMC11741623.
The other results are listed elsewhere or left out. Interaction screen of human proteins with wild-type SARS-CoV-2 proteins by split-DHFR complementation in yeast, 1 µg/mL methotrexate. Value = fitness of the pair (three or more lineages) minus that of the viral protein without a human partner, on a scale set by negative (0) and fused positive (1) controls, mean of up to three cultures; higher = more likely to interact. Active = false discovery rate below 0.05 (one-sided t-test) in at least one culture. Nearly all pairs are not hits, and differences among them are mostly noise (correlation between cultures about 0.3); most hits were seen in one culture only. Human sequences are the Swiss-Prot entries looked up by gene name; the clone may be another isoform. NSP2 values were corrected by the authors for a growth advantage. Listed are human proteins with a hit and a random twelfth of the others.

What was measured:
Test in all cases: yeast fitness gain over the viral ORF with no human partner (scaled fitness); higher = more likely to interact
SARS-CoV-2 NSP13 = molecular target: SARS-CoV-2 NSP13
Procedure: (§1)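 Split mouse DHFR complementation in pooled diploid yeast: human ORFeome clones carry one fragment and viral ORFs the other; barcoded lineages compete in 1 µg/mL methotrexate and fitness is read by barcode sequencing in up to three cultures.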

SARS-CoV-2 NSP2 = molecular target: SARS-CoV-2 NSP2
Procedure: as §1

SARS-CoV-2 ORF7A = molecular target: SARS-CoV-2 ORF7A
Procedure: as §1

SARS-CoV-2 ORF10 = molecular target: SARS-CoV-2 ORF10
Procedure: as §1

SARS-CoV-2 ORF3B = molecular target: SARS-CoV-2 ORF3B
Procedure: as §1

[1] = molecular target: SARS-CoV-2 ORF9Bwu (the 73-codon ORF)
Procedure: as §1

SARS-CoV-2 ORF6 = molecular target: SARS-CoV-2 ORF6
Procedure: as §1

SARS-CoV-2 NSP6 = molecular target: SARS-CoV-2 NSP6
Procedure: as §1

SARS-CoV-2 ORF7B = molecular target: SARS-CoV-2 ORF7B
Procedure: as §1

SARS-CoV-2 ORF9B = molecular target: SARS-CoV-2 ORF9B
Procedure: as §1

SARS-CoV-2 NSP5 = molecular target: SARS-CoV-2 NSP5
Procedure: as §1

Measured: yeast fitness gain

B1: ACPL2, Q8TE99 (protein)
chain: MLFRNRFLLLLALAALLAFVSLSLQFFHLIPVSTPKNGMSSKSRKRIMPDPVTEPPVTDPVYEALLYCNIPSVAERSMEGHAPHHFKLVSVHVFIRHGDRYPLYVIPKTKRPEIDCTLVANRKPYHPKLEAFISHMSKGSGASFESPLNSLPLYPNHPLCEMGELTQTGVVQHLQNGQLLRDIYLKKHKLLPNDWSADQLYLETTGKSRTLQSGLALLYGFLPDFDWKKIYFRHQPSALFCSGSCYCPVRNQYLEKEQRRQYLLRLKNSQLEKTYGEMAKIVDVPTKQLRAANPIDSMLCHFCHNVSFPCTRNGCVDMEHFKVIKTHQIEDERERREKKLYFGYSLLGAHPILNQTIGRMQRATEGRKEELFALYSAHDVTLSPVLSALGLSEARFPRFAARLIFELWQDREKPSEHSVRILYNGVDVTFHTSFCQDHHKRSPKPMCPLENLVRFVKRDMFVALGGSGTNYYDACHREGF
inactive: SARS-CoV-2 NSP13 = -0.154 | SARS-CoV-2 NSP2 = -0.356

B2: YWHAQ, P27348 (protein)
chain: MEKTELIQKAKLAEQAERYDDMATCMKAVTEQGAELSNEERNLLSVAYKNVVGGRRSAWRVISSIEQKTDTSDKKLQLIKDYREKVESELRSICTTVLELLDKYLIANATNPESKVFYLKMKGDYFRYLAEVACGDDRKQTIDNSQGAYQEAFDISKKEMQPTHPIRLGLALNFSVFYYEILNNPELACTLAKTAFDEAIAELDTLNEDSYKDSTLIMQLLRDNLTLWTSDSAGEECDAAEGAEN
inactive: SARS-CoV-2 NSP13 = -0.147 | SARS-CoV-2 ORF7A -0.328

B3: GMCL1, Q96IK5 (protein)
chain: MGSLSSRVLRQPRPALAQQAQGARAGGSARRPDTGDDAAGHGFCYCAGSHKRKRSSGSFCYCHPDSETDEDEEEGDEQQRLLNTPRRKKLKSTSKYIYQTLFLNGENSDIKICALGEEWSLHKIYLCQSGYFSSMFSGSWKESSMNIIELEIPDQNIDVEALQVAFGSLYRDDVLIKPSRVVAILAAACLLQLDGLIQQCGETMKETVNVKTVCGYYTSAGTYGLDSVKKKCLEWLLNNLMTHQNVELFKELSINVMKQLIGSSNLFVMQVEMDIYTALKKWMFLQLVPSWNGSLKQLLTETDVWFSKQRKDFEGMAFLETEQGKPFVSVFRHLRLQYIISDLASARIIEQDAVVPSEWLSSVYKQQWFAMLRAEQDSEVGPQEINKEELEGNSMRCGRKLAKDGEYCWRWTGFNFGFDLLVTYTNRYIIFKRNTLNQPCSGSVSLQPRRSIAFRLRLASFDSSGKLICSRTTGYQILTLEKDQEQVVMNLDSRLLIFPLYICCNFLYISPEKKN
inactive: SARS-CoV-2 NSP13 = -0.0203 | SARS-CoV-2 ORF10 = 0.0186 | SARS-CoV-2 ORF3B 0.0286 | [1] -0.235

B4: RBBP7, Q16576 (protein)
chain: MASKEMFEDTVEERVINEEYKIWKKNTPFLYDLVMTHALQWPSLTVQWLPEVTKPEGKDYALHWLVLGTHTSDEQNHLVVARVHIPNDDAQFDASHCDSDKGEFGGFGSVTGKIECEIKINHEGEVNRARYMPQNPHIIATKTPSSDVLVFDYTKHPAKPDPSGECNPDLRLRGHQKEGYGLSWNSNLSGHLLSASDDHTVCLWDINAGPKEGKIVDAKAIFTGHSAVVEDVAWHLLHESLFGSVADDQKLMIWDTRSNTTSKPSHLVDAHTAEVNCLSFNPYSEFILATGSADKTVALWDLRNLKLKLHTFESHKDEIFQVHWSPHNETILASSGTDRRLNVWDLSKIGEEQSAEDAEDGPPELLFIHGGHTAKISDFSWNPNEPWVICSVSEDNIMQIWQMAENIYNDEESDVTTSELEGQGS
inactive: SARS-CoV-2 NSP13 = -0.219 | SARS-CoV-2 NSP2 = -0.28 | SARS-CoV-2 ORF6 = -0.241

B5: PHYHIP, Q92561 (protein)
chain: MELLSTPHSIEINNITCDSFRISWAMEDSDLERVTHYFIDLNKKENKNSNKFKHRDVPTKLVAKAVPLPMTVRGHWFLSPRTEYSVAVQTAVKQSDGEYLVSGWSETVEFCTGDYAKEHLAQLQEKAEQIAGRMLRFSVFYRNHHKEYFQHARTHCGNMLQPYLKDNSGSHGSPTSGMLHGVFFSCNTEFNTGQPPQDSPYGRWRFQIPAQRLFNPSTNLYFADFYCMYTAYHYAILVLAPKGSLGDRFCRDRLPLLDIACNKFLTCSVEDGELVFRHAQDLILEIIYTEPVDLSLGTLGEISGHQLMSLSTADAKKDPSCKTCNISVGR
inactive: SARS-CoV-2 NSP13 = -0.0279 | SARS-CoV-2 NSP2 = -0.121 | SARS-CoV-2 NSP6 = 0.0684 | SARS-CoV-2 ORF3B 0.101 | SARS-CoV-2 ORF7A 0.081 | SARS-CoV-2 ORF7B 0.134 | SARS-CoV-2 ORF9B -0.00615

B6: ZBTB6, Q15916 (protein)
chain: MAAESDVLHFQFEQQGDVVLQKMNLLRQQNLFCDVSIYINDTEFQGHKVILAACSTFMRDQFLLTQSKHVRITILQSAEVGRKLLLSCYTGALEVKRKELLKYLTAASYLQMVHIVEKCTEALSKYLEIDLSMKNNNQHTDLCQSSDPDVKNEDENSDKDCEIIEISEDSPVNIDFHVKEEESNALQSTVESLTSERKEMKSPELSTVDIGFKDNEICILHVESISTAGVENGQFSQPCTSSKASMYFSETQHSLINSTVESRVAEVPGNQDQGLFCENTEGSYGTVSEIQNLEEGYSLRHQCPRCPRGFLHVENYLRHLKMHKLFLCLQCGKTFTQKKNLNRHIRGHMGIRPFQCTVCLKTFTAKSTLQDHLNIHSGDRPYKCHCCDMDFKHKSALKKHLTSVHGRSSGEKLSRPDLKRQSLL
inactive: SARS-CoV-2 NSP13 = 0.0619 | SARS-CoV-2 NSP2 = -0.438 | SARS-CoV-2 NSP5 = -0.141 | SARS-CoV-2 ORF6 = -0.00554 | SARS-CoV-2 ORF7B -0.0782 | SARS-CoV-2 ORF9B 0.0317
